B1: LINE1-mini (parent)
chain: GGCAGAGCUCAACACAGCGUGGCAAAGUGGCUGUGGCUAGACUGCC

Read counts are not given, so values of variants with three or more changes are uncertain.

In this data set the parent is B1. The data set can be described thus: self-cleavage, relative activity (ratio to wild type); higher = more cleavage; in vitro, sequencing; the parent is a self-cleaving ribozyme.
As to A6G C10A U20G U28C G36U, the self-cleavage was determined as 0.
Take G27C A41U C45G: the self-cleavage was determined as 0.09.
For G29A G40A G44U C46A the value was 0.06; for U9C C13U U20A, 0.02.
For G1C A6G U9C C42G, the self-cleavage stood at 0.
On to G2A G22A C46A, for which the self-cleavage is 0.17.
For G1A C10U C13A the value was 0.05; for C13G A25U U38G, 0.01; for G2C C31A U32G, 0.09.
For A26U G30C U32A the value was 0.22; for U28A G29A C37G G40U, 0.02.
As for C31G U34A G40U, the self-cleavage came out at 0.03.
In the case of G7U A11U G19U G33U C46U, the self-cleavage was determined as 0.05.
For A12G C13G G30U G33A C42G, the self-cleavage came out at 0.
For G30C U43G C45G the value was 0.12.
For A4C G40U G44C the value was 0.02; for G27U G33C C45U, 0.03.
For G5A C10G G30C C46U the value was 0.01; for C18A G22A G35U, 0.48.
Take A11C C13A C23G G44U C45G: the self-cleavage came out at 0.01.
In the case of A6U A24C U43A, the self-cleavage was 0.02.
As for A16G G17C C18U G27U, the self-cleavage came to 0.09.
Consider U9G G17U G29C G30A U32A, for which the self-cleavage stood at 0.17.
As for A6G C10A C23A A24G G40A, the self-cleavage turned out to be 0.01.
Take A11U A12U G27C: the self-cleavage came to 0.08.
For G17U G22U C37U the value was 0.04.
A12C G22A G27U U28A G40A C45A: the self-cleavage is 0.01.
As for G17A U34A G40A, the self-cleavage was 0.01.
For G7A G17C A25G C31A C45A the value was 0.05; for C10A C18U G19C A25U G27A G35U G40U C42G, 0.02; for G2U G22C A39U, 0.09.
For C3A A25C G30A U38G U43A the value was 0.51; for C8U G22U G27U C37G C46G, 0.05; for C3A A11U C42G, 0.
For G2U G5C C46U the value was 0.02; for A6U C10U C18A G44U, 0.07.
Take C10A G22U C31A C46G: the self-cleavage came out at 0.05.
For C3U G5U U9G G17A C37A G44U the value was 0.05.
Take G1C G27A C46A: the self-cleavage came out at 0.44.
Regarding A12C A16G C42A, the self-cleavage is 0.04.
For G5A A24G C45A the value was 0.03; for U32G G33A U34A C46G, 0.03; for U9C C10U A11G U20G, 0.02.
For the variant A4C C10A C13U G22C G35A, the self-cleavage worked out at 0.02.
For G27U C31U G35C the value was 0.06; for C3U C8A U32G U38C, 0.69.
G5U C10G C23A: the self-cleavage was 0.01.
For the variant A6C G17A G35C A41G, the self-cleavage was found to be 0.03.
For C13U C15U U28A the value was 0.07; for A6U A14U C15G G17C U20G, 0.02.
In the case of G2A G27C G40U, the self-cleavage is 0.19.
For A6C A11C A14C G29U G36A C42G the value was 0.01.
On to A6C U9A U43A, for which the self-cleavage is 0.04.
For A12U G17C C46G the value was 0.04; for G19C G30A A39G U43G, 0; for A6G C10G A12C C23U U38G, 0.01.
For the variant A6G C31G U34G, the self-cleavage was 0.01.
G2U A4G A12C C13A: the self-cleavage was 0.01.
For A12G G17U C18G G21U A39C the value was 0.01; for G1U G5U A11G, 0.04.
Turning to G7A A16C G30A U43C, the self-cleavage was 0.05.
For the variant C15G G17A C18A G22A G30U C45G, the self-cleavage amounted to 0.05.
Regarding G7A C10G A39C, the self-cleavage was determined as 0.02.
For G2A U38G G44A the value was 0.07; for A4G A12C A14C, 0.04.
For C3U A14C G21U the value was 0.16; for G2A A6G G30A U32G, 0.26.
For G2C G33C U43C the value was 0.01; for A4C A16C C18U G33U, 0.04.
Take A6G A25C A26C: the self-cleavage was found to be 0.1.
For G7A C10A C13U G27U G33U the value was 0.01.
For G2A A16U C31U C45A, the self-cleavage was found to be 0.08.
In the case of G17C G35U C42A, the self-cleavage amounted to 0.03.
For G1U A26G C45U the value was 0.38; for G1C G5A U43G, 0.02; for A16U U20G C37A U38A C46G, 0.01.
For G5U G17U G33A the value was 0.12; for C8A G17C G29C G35A, 0.13; for C23A A25U U28C, 0.47.
For A6C A16G G35C the value was 0.02.
In the case of A11G A14C A26U, the self-cleavage came to 0.04.
Turning to C8A C10A C15U G21U G44U, the self-cleavage worked out at 0.
On to A14C G27A C37U, for which the self-cleavage was 0.02.
For A4U C18A C31U G36U G40U the value was 0.01; for G27A C31G U32G G36C A41G C42A, 0.07.
As to G2A G5U G7U C15U G30A, the self-cleavage was 0.08.
Take G22U U32G G33C C46G: the self-cleavage was 0.09.
For C10G G30U C37G the value was 0.01; for C3U A6G C15U G36A, 0.12.
For A4C G5C G21C G22A C23G G36C the value was 0.03; for G7U C18A A26C A41C C45U, 0.17; for G1C G27A U38C, 0.03.
With U9C A12U U20G C31A C45G C46A, the self-cleavage is 0.02.
Regarding C3G C13G A14G G33A A41U, the self-cleavage is 0.11.
For G2C G7C G29U the value was 0.25; for C10A A25C G29U, 0.01.
For C3A G29U C37U C46G the value was 0.02; for A25G G44U C46G, 0.16.
For A4G C18G C23A A39C the value was 0.04; for C3G A4C G27U, 0.07; for G22U C42G C45A, 0.04.
C3U A14U G29U: the self-cleavage was determined as 0.22.
On to C3G A4U A6G U28A, for which the self-cleavage stood at 0.03.
For A4G C8G G19C G21A U28G C31U the value was 0.01; for A39C C42G C45U, 0.07; for A4U G5A G7C C15U C18U U38G, 0.03.
For G2A C15U G27A C42A the value was 0.05; for A6U C18A G21A C46U, 2.8; for G1C G7A C15G U34A, 0.01.
For G1C C15U G36C the value was 0.01; for C10A C18U G29A, 0.
In the case of G7A C10G A11C A12C C13G C15U G33C C37U, the self-cleavage was 0.
For G19A U20G G44C the value was 0.14.
For A14C G17U C23U the value was 0.21; for A12G C18G U28C U32A C37G, 0.01.
Consider A6G G19U U34C, for which the self-cleavage is 0.08.
For C10G A25C U38C the value was 0.02; for A12C U20C G33U G36U C46G, 0.01; for A12U C15A G33C, 0.02.
Consider G5U U9G G17C G33A C37A G44A, for which the self-cleavage is 0.01.
A6U C15U U20C: the self-cleavage turned out to be 0.04.
For U9G C15G G36U the value was 0.46.
For G2C G40U C42U U43A the value was 0.13; for G1U C3G A4G U20A G44A, 0.02.
Consider G19A U20A A41U C46U, for which the self-cleavage worked out at 0.14.
For C8A A12C U28A the value was 0.04; for C3U G5C A14U G33A U38C, 0.05.
For C10U C13G G36A U43A C45G the value was 0.01.
In the case of G7C A14C G29U, the self-cleavage turned out to be 0.08.
For A14U U28A U32G G33A U34A C46A the value was 0.02.
For A4C C18G C42G U43C the value was 0.01; for C8A A25G G27U G29U, 0.34.
With C3U G17C G33U U43C, the self-cleavage was 0.
For C10G A16U G29C the value was 0.09.
For G2A C15G G27A G29C A41U the value was 0.04; for C3A U32C C45G, 0.07; for G19A G22U A26G C31G, 0.09.
For G1C C10A G21C C45G the value was 0.01; for G5U C18G C23U, 0.02; for A16C A25C U43C, 0.08.
For the variant A6U U20G A26C G30U U43C, the self-cleavage came out at 0.01.
For C10A A25G G35C C37A the value was 0.01; for C10A G27U G29C U32A C37G A39C, 0.01; for C13G G22U A25G C37A, 0.03.
For G1U A14G G21C G29U C45G the value was 0.04; for C3A C18U A24C, 0.07.
For C15A G30A G35A U43C the value was 0.07.
In the case of G29A C31A G44C, the self-cleavage turned out to be 0.1.
For the variant G2U C13G C46U, the self-cleavage was 0.03.
For U9A C13A U32C U34A C46U the value was 0.36; for C10G A14U U28G, 0.
C13A A25U C42G C46U: the self-cleavage came to 0.09.
As for C3U A6C C13U C18U G44C, the self-cleavage was found to be 0.1.
Consider C8G C10G C13G C37G, for which the self-cleavage is 0.02.
For G2A G5U U9G G35U the value was 0.14; for G2U U9A G17U A39G, 0.02; for U9C A14G G19A C42A, 0.02.
C8U C10A C37U: the self-cleavage was 0.08.
Take C15A A39U U43C: the self-cleavage was found to be 0.01.
For C3G A11G U20C the value was 0.02; for C3U A6G A14C, 0.11; for A6C C10G G17C C31G G40C, 0.01.
Regarding A4G G7U A12C, the self-cleavage is 0.03.
For G2C G29A C37U the value was 0.09; for G2U A16C U28G G30C, 0.03.
For G2A C13G A16U G35U U38C C42G the value was 0.16.
Turning to C3A A6U G21C, the self-cleavage came to 0.46.
